In ChEMBL document CHEMBL4888484, “Replenishing the malaria drug discovery pipeline: Screening and hit evaluation of the MMV Hit Generation Library 1 (HGL1) against asexual blood stage Plasmodium falciparum ,using a nano luciferase reporter read-out” (2022):
In all, about 150,000 compounds went through this assay and about 540 (0.36%) showed an effect of 50% or more. The list shows a part of the results.

Tested on: Plasmodium falciparum
Experiment: Primary screen in NF54 nanoGlo assay, in single point, at 2uM, 72h; a lower Z score goes with more inhibition
Assay type: functional, Erythrocyte
Details: timepoint 72 hour

| Structure (SMILES) | % Inhibition | Z score |
| --- | --- | --- |
| COC(=O)[C@@H]1C[C@@H](O)CN1Cc1c(C)noc1C | -6% | 0.95 |
| Cc1cscc1C(=O)NC1CN(Cc2ccccc2)CCC1CO (stereo not drawn) | -14% | 2.15 |
| O=C(COc1ccc(Cl)cc1)Nc1cccc(N2Cc3ccccc3C2)c1 | -3% | 0.31 |
| CCn1nc(C)c(C(=O)N(C)CCN(C)Cc2nc(CC(C)C)no2)c1Cl | -4% | 0.58 |
| O=C(CN(Cc1ccco1)C1CS(=O)(=O)CC1O)NCCOc1ccccc1 (stereo not drawn) | 0% | -0.04 |
| O=C1c2ccccc2N[C@H](c2cccc(Cl)c2Cl)N1C1CCCCC1 | 34% | -3.89 |
| CCN1CCN(CC(=O)N2N=C(c3ccc(C)cc3)C[C@H]2c2ccc3c(c2)OCO3)CC1 | -12% | 1.79 |
| O=C(c1ccc(-c2nccs2)cc1)N1CCN(Cc2nnc[nH]2)CC1 | -5% | 0.71 |
| O=C(O)COc1ccc(-c2cnccn2)cc1CN1CCC[C@H]1c1ccco1 | 0% | -0.04 |
| CCN(Cc1ccc2ccn(CC)c2c1)[C@@H](C)CCO | -10% | 1.27 |
| O=C(Nc1nnc2ccccn12)c1cc2ccccc2o1 | 11% | -1.22 |
| O=C(Cc1ccc(Cl)cc1)N1CCCN(c2nnc3ccc(C(F)(F)F)cn23)CC1 | 27% | -3.04 |
| CN1CC[C@@H]2CN(C(=O)c3cccc(C(F)(F)F)c3)C[C@@H]21 | -16% | 1.46 |
| O=C(CCc1cn[nH]c1)NC[C@H]1CCCc2ccc(C(=O)O)cc21 | -13% | 1.37 |
| O=C(NCC(O)c1c(Cl)cccc1Cl)C1CCOC1 (stereo not drawn) | -15% | 1.51 |
| O=C(CC[C@H]1CCCOC1)NCc1noc(-c2ccsc2)n1 | -9% | 1.33 |
| COCCOCC(=O)N[C@@H](C)c1ccccc1 | -6% | 0.69 |
| CC[C@@H](C(=O)NCCc1sccc1C)n1cccn1 | -9% | 0.94 |
| CC(C)(CN1CCCn2nc(CNC(=O)C3CCC3)cc2C1)N1CCCCC1 | -1% | 0.09 |
| CNC(=O)[C@@H](C)CN(C)c1ncc(F)cn1 | -3% | 0.5 |
| CN(C)CCCC(=O)N1CCc2[nH]nc(-c3ccc4c(c3)OC(F)(F)O4)c2C1 | 4% | -0.49 |

| Structure (SMILES) | % Inhibition | Z score |
| --- | --- | --- |
| Cc1ccncc1C(=O)NC[C@@H]1CN(C)C(=O)[C@H](c2ccccc2)N1Cc1cccnc1 | 0% | 0 |
| CC(C)(NC(=O)[C@H]1CC1(C)C)c1ccc(F)c(F)c1 | -3% | 0.56 |
| Cc1nnc(-c2cccc(NC(=O)[C@@H]3CCCCN3Cc3cncs3)c2)s1 | -17% | 2.13 |
| CCCc1cc(C(=O)N2CCc3[nH]nc(-c4cccc5ccccc45)c3C2)[nH]n1 | -14% | 1.35 |
| c1ccc(-c2noc(-c3ccc(NCc4cccs4)nn3)n2)cc1 | 9% | -1.03 |
| O=C1NCCN1CCNCc1cn(CCOc2ccccc2F)c2ccccc12 | -14% | 2.35 |
| CC(C)c1ccc(C=CCC(=O)N(C)[C@H]2CCS(=O)(=O)C2)cc1 | 17% | -1.89 |
| CN(CCc1cccs1)C(=O)[C@H]1CC[C@H](Nc2cnccn2)CC1 | -14% | 1.68 |
| C[C@H](CNCc1nnc(C2CC2)o1)Cc1ccccc1 | -9% | 1.44 |
| Cc1cccc(CS(=O)(=O)N(CCO)C2CC2)c1 | -11% | 0.98 |
| Cc1ccc(-c2noc(Cn3ncn(C)c3=O)n2)cc1 | -3% | 0.51 |
| CCCn1c(CCc2ccc(NS(=O)(=O)c3ccc(F)c(Cl)c3)cc2)nc2ccccc21 | -5% | 0.79 |
| CC(C)c1nnc(CCC(=O)N2CCC[C@H](C)c3ccccc32)o1 | -16% | 1.73 |
| Cc1n[nH]c(C)c1C(=O)NCc1nnc2cc(C(F)(F)F)ccn12 | 23% | -2.95 |
| Cc1ncsc1C(=O)OCC(=O)Nc1ccc(S(N)(=O)=O)cc1 | -4% | 0.34 |
| CN1CCN([C@H]2CCN(Cc3ccc(Cl)o3)C2)CC1 | -1% | 0.12 |
| Cc1nc2c(F)cccc2cc1C(=O)NC1CCN(C[C@H]2CCOC2)CC1 | -13% | 1.68 |
| Cc1nnc(N(C)Cc2ccccc2CN(C)C)s1 | -7% | 0.9 |
| O=C(C1CCCC1)N(CCN1CCOCC1)CC(=O)N1N=C(c2ccc(F)cc2)C[C@H]1c1ccc(F)cc1 | -22% | 2.09 |
| COC[C@H](C)N1CCN(C(=O)c2cc3ccccc3c(=O)[nH]2)CC1 | 2% | -0.24 |
| O=C(CCn1ccccc1=O)NCC1(c2cccc(Cl)c2)CC1 | 4% | -0.47 |

| Structure (SMILES) | % Inhibition | Z score |
| --- | --- | --- |
| O=C(NCCN1CCCOC1=O)c1cccc(-c2cc(F)ccc2O)c1 | -5% | 0.66 |
| COC(=O)[C@](C)(NC(C)=O)c1cc(F)ccc1F | -3% | 0.53 |
| O=C(NCCN1CCCOCC1)c1ncccc1NCC1CCC1 | 26% | -2.96 |
| CC[C@H](O)Cn1nc(C2(c3ccccc3)CC2)nc1CCn1ccc(C)n1 | -2% | 0.34 |
| O=C1c2cccc3[nH]cc(c23)C=NN1CN1CCN(c2ccccc2)CC1 | 1% | -0.13 |
| COCc1nc(NC2CCC(NC(=O)c3ccccc3)CC2)c2c(C)nn(-c3ccccc3)c2n1 (stereo not drawn) | 3% | -0.41 |
| Cn1ncc2c(N3CCc4[nH]nc(C5CC5)c4C3)nc(-c3cccnc3)nc21 | -15% | 1.83 |
| Cc1nc[nH]c1-c1nccn1-c1ccc2cn[nH]c2c1 | -6% | 1.35 |
| COc1cccc(-c2nc3sc(C(=O)N4CCOCC4)c(C)n3c2NC(C)(C)C)c1 | -3% | 0.57 |
| CC1(C)CC(NC(=O)c2sccc2C2CC2)CC(C)(C)N1 | 8% | -0.78 |
| COc1cccc(CN(C)C(=O)c2ccon2)n1 | -12% | 1.72 |
| Cc1ccc(C(=O)N[C@H](CO)CN2CCCCC2)o1 | -1% | 0.12 |
| Cc1noc(C)c1CN1CC[C@H](NC(=O)c2cscn2)[C@@H](O)C1 | 4% | -0.76 |
| CN(Cc1cccnc1)Cc1cccc(-c2cccnc2)c1 | -7% | 0.92 |
| C=C1CC[C@@H]2C[C@H]1C(c1ccc(N(C)C)cc1)OC2(C)C.CC1=CC[C@@H]2C[C@H]1C(c1ccc(N(C)C)cc1)OC2(C)C (stereo partly drawn) | -10% | 0.93 |
| O=C(CCCc1ccccc1)N1CC[C@H](N2CCc3ccccc3C2)C1 | -13% | 2.49 |
| Cc1nc(CC(=O)N2C[C@@H]3CC[C@H]2CN(c2cnccn2)C3)cs1 | -9% | 0.93 |
| COCCN(C)Cc1ccnc(NC(=O)Cc2ccc(C)nc2)c1 | -4% | 0.45 |
| CC1CC(O)CN1C(=O)c1nn(-c2cccc(Br)c2)c2c1CCC2 (stereo not drawn) | -20% | 1.73 |
| CCc1nc(Cn2cnc3snc(C)c3c2=O)cs1 | -18% | 3.73 |
| CCc1csc(N2C[C@H]3CCC[C@@]3(CO)C2)n1 | 6% | -0.66 |

| Structure (SMILES) | % Inhibition | Z score |
| --- | --- | --- |
| CC(C)c1noc(-c2cccn3c(CNC(=O)CCC4CCCC4)nnc23)n1 | -19% | 3.75 |
| Cc1ccc(C(=O)N[C@](C)(c2noc(C)n2)C2CC2)c(Cl)c1 | -9% | 1.62 |
| CCCNC(=O)c1cnc(N2CCCC2)nc1 | -9% | 1.77 |
| Cc1n[nH]c(C)c2cc(C(C)(C)C)cc1-2 | 26% | -3.86 |
| O=C(c1ccc2nccnc2c1)N1C[C@@H]2CC[C@H]1CN(Cc1ccccn1)C2 | 1% | -0.13 |
| O=c1cc(-c2ccc(Cl)cc2)nc(N2CCN(C(c3ccccc3)c3ccccc3)CC2)[nH]1 | -14% | 2.03 |
| Cc1ccc(S(=O)(=O)Nc2nc(C)c(C(=O)NCc3c(F)cccc3F)s2)cc1 | -1% | 0.09 |
| CC[C@@H](C(=O)N1CCN(Cc2ccc3c(c2)OCO3)CC1)n1c(O)nc2ccccc2c1=O | -9% | 1.26 |
| CC1(C)C(O)CC1NC(=O)c1cc(Br)ccc1F (stereo not drawn) | 5% | -0.93 |
| O=C(c1ccncc1Br)N1CCCC[C@H]1c1ncon1 | -12% | 1.79 |
| Cc1ccc([C@H](CNC(=O)c2ccccc2F)N2CCC(C)CC2)o1 | -4% | 0.67 |
| Cn1cccc1-c1cc2n(n1)CCC(=O)N2CCCC(=O)NCc1ccc2c(c1)OCO2 | -13% | 2.48 |
| CC[C@H]1C(=O)NCCN1Cc1c(Br)cncc1OC | -4% | 0.54 |
| COc1ccc(O)cc1CN1CC[C@H](CNC(=O)N2CCCC2)[C@@H](O)C1 | -11% | 1.26 |
| Cc1nnc(NC(=O)NC(C)C2CCCO2)s1 (stereo not drawn) | -3% | 0.46 |
| c1c[nH]c(N2CCN(CC3CC4(CCC4)C3)CC2)n1 | -6% | 0.84 |
| CC(C)(C)CN1CCC[C@@]2(CCN(Cc3nc(-c4ccccc4)no3)C2)C1=O | -13% | 2.1 |
| O=C(OC1CCN(CC(F)F)CC1)c1cnn2c1CCCC2 | 4% | -0.6 |
| CC(=O)c1cnc2c(-c3ccccc3)c(-c3cccc(Br)c3)nn2c1C | -45% | 5.22 |
| O=C(c1ccnc(C2CC2)n1)N1CC(c2nc3ccccc3s2)C1 | -15% | 1.36 |
| c1nc(N[C@H]2C[C@@H](c3cc(N4CCOCC4)ncn3)C2)c2nc[nH]c2n1 | 6% | -0.93 |
